Laboratory results taken from PMC4336329 (PLoS ONE, 2015).
The whole screen tested about 310,000 compounds, of which about 2,200 (0.71%) showed an effect of 50% or more. The effect is printed as a negative number. Some of the results follow.

What follows are compounds tested against human ether-à-go-go-related gene (hERG) potassium channel (human, UniProt Q12809) (assay: primary screen, population patch clamp on CHO cells stably expressing hERG).
Sequence of human ether-à-go-go-related gene (hERG) potassium channel (Q12809 whole entry, looked up): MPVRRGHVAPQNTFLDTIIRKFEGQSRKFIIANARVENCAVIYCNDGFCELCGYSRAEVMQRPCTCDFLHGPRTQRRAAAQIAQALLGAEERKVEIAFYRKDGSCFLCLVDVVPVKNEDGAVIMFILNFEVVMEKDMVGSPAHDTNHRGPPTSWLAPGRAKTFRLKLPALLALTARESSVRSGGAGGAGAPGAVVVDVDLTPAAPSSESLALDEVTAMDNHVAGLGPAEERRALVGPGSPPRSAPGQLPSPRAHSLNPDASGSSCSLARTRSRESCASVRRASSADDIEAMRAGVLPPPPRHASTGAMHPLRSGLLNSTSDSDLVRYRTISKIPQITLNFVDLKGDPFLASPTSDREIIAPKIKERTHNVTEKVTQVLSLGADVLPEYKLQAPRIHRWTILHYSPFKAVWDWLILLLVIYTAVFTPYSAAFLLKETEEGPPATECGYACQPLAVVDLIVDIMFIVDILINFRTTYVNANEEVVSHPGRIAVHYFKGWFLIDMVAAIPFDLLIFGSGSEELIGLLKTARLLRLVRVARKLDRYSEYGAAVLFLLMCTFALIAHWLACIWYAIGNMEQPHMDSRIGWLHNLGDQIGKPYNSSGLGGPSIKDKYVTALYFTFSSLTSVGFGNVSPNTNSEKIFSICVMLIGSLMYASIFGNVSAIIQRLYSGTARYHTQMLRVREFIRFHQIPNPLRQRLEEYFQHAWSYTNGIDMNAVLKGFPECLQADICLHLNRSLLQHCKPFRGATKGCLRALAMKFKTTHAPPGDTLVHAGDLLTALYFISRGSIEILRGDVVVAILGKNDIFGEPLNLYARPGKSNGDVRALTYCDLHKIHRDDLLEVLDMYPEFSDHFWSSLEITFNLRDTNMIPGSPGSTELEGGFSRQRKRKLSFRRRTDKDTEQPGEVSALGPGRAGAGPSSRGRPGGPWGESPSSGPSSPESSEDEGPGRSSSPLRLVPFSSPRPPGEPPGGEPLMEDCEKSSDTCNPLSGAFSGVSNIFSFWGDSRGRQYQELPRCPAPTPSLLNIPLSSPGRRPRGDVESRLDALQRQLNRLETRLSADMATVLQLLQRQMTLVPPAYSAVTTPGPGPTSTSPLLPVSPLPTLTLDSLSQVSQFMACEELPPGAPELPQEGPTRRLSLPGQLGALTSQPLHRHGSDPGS

Row | SMILES | hERG current change (%, negative = inhibition) at 1uM [%]
1 | CC1CCCCC1NC(=O)C1Cc2ccccc2CN1S(C)(=O)=O (stereo not shown) | 11.2
2 | CCn1c(SCC(=O)N2c3ccccc3Sc3ccccc32)nc2c1c(=O)n(C)c(=O)n2C | 7.08
3 | O=C(Nc1ccc(OC(F)(F)F)cc1)c1cnccn1 | 12.6
4 | COC(=O)c1ccc(COC(=O)[C@@H]2CC(O)CN2S(=O)(=O)c2ccccc2[N+](=O)[O-])cc1 (stereo partly shown) | 10.7
5 | COc1ccc(-c2nc(C#N)c(N3CCCCCC3)o2)cc1 | -19.1
6 | S=c1nc(-c2ccccc2)c(-c2ccccc2)n[nH]1 | 11.4
7 | COc1ccccc1C(=O)NC(=O)COC(=O)CCOc1cc(C)ccc1C | 14.1
8 | CC1CCCN(CC(O)COCC2COc3ccccc3O2)C1.Cl (stereo not shown) | -8.2
9 | CC(OC(=O)CNC(=O)c1ccccc1F)C(=O)Nc1nc(-c2ccccc2)cs1 (stereo not shown) | 7.25
10 | CN(C)C(=O)CSc1nnc([C@H](Cc2c[nH]c3ccccc23)NC(=O)OC(C)(C)C)o1 | 6.45
11 | COc1ccc(C2CC3(CC(C)(C)NC(=S)N3)Oc3cc(O)cc(C)c32)cc1 (stereo not shown) | 9.23
12 | O=C(CNC(=O)c1ccccc1)Nc1cccc(C(F)(F)F)c1 | 1.47
13 | COc1cc(C(=O)N2CCN(C(=O)c3cc(-c4ccc(Br)cc4)n[nH]3)CC2)cc(OC)c1OC | -38.2
14 | CCCC(=O)Oc1c(S(=O)(=O)c2ccc(C)cc2)c(C)nn1C(C)(C)C | 0.768
15 | COc1ccc(OC)c(/C=C/C(=O)N2C(=O)c3cccc(N)c3C2=O)c1 | 7.87
16 | COc1cccc(C(=O)NNC(=O)C(=O)N2CCCCC2)c1 | 13.4
17 | CC(=O)c1sc(NC(=O)CN2C(=O)NC3(CCCC3)C2=O)nc1-c1ccccc1 | 12.2
18 | CCOCc1cnc(C)nc1NCC(=O)c1c(C)[nH]c2ccccc12 | 13.3
19 | CC(C)C(O)(c1ccccc1)C(CN1CCOCC1)c1ccccc1.Cl (stereo not shown) | 12.4
20 | CCOC(=O)c1ccccc1NC(=O)COC(=O)C(CC(C)C)NC(N)=O (stereo not shown) | 7.56
21 | CC1CCCC(C)N1C(=O)CSc1nc2ccccc2s1 (stereo not shown) | 12.5
22 | Cn1c(=O)oc2cc(S(=O)(=O)N3CCC(N4CCCCC4)CC3)ccc21 | 6.79
23 | COc1ccc(-n2c(C)cc(C(=O)CSc3ccc(NC(C)=O)cc3)c2C)cc1 | 12.3

Row | SMILES | hERG current change (%, negative = inhibition) at 1uM [%]
24 | O=C(NCc1cccnc1)c1ccc(COc2ccc(Cl)cc2Cl)o1 | 4.44
25 | Cc1cc(Cl)ccc1NC(=S)NCCN1CCOCC1 | 6.23
26 | CCNC(=O)CC1S/C(=N/N=C(\C)c2ccccc2)NC1=O (stereo not shown) | 1.65
27 | CCOc1cc(S(=O)(=O)NCc2cccnc2)c(C)cc1C | 11.9
28 | O=C(c1ccccc1)C(O)(Cc1ccccc1)c1ccccc1 (stereo not shown) | 7.17
29 | Cc1occc1C(=O)Nc1cccc([N+](=O)[O-])c1C | 8.63
30 | COc1ccc(/C=C/C(=O)Nc2cc(C)on2)cc1 | 6.93
31 | O=C(CSc1ccc(Br)cc1)Nc1ccccc1N1CCOCC1 | 14.2
32 | COc1cc(CO)ccc1OCC(=O)Nc1ccc(Br)cc1 | 10.2
33 | COc1ccc(Cl)cc1C(=O)NNC(=S)NC1CCCCC1 | 13.2
34 | C[N+]1(C)C2CCC1CC(OC(=O)c1ccccc1)C2.[Br-] (stereo not shown) | 4.1
35 | O=C(c1ccncc1)N1CCCC(N2CCN(c3ccc(F)cc3)CC2)C1 (stereo not shown) | -19.9
36 | S=c1nc(NCCc2ccccc2Cl)c2ccccc2[nH]1 | 17.4
37 | Cc1ccc(-c2csc(NC(=O)CCNC(=O)c3ccc(Cl)cc3)n2)cc1 | 11
38 | O=C(COc1ccc(Cl)cc1)N(Cc1ccc(F)cc1)C1CCS(=O)(=O)C1 (stereo not shown) | -4.13
39 | CCc1cccc(NC(=O)Cn2c(=O)oc3cc(S(=O)(=O)N4CCOCC4)ccc32)c1 | 17.5
40 | CC1(C)Cc2cccc(OCC(=O)Nc3ccccc3N3CCOCC3)c2O1 | -2.2
41 | O=C1c2ccccc2C(=O)N1CCSc1ncn[nH]1 | 19
42 | CC(C(=O)NCc1ccccc1)N1C(=O)C2CC=C(Cl)CC2C1=O (stereo not shown) | 9.04
43 | CC(C)NC(=O)COc1ccc(S(=O)(=O)N2CCCC2)cc1 | 13
44 | CCc1[nH]nc(C(=O)N2CCCC(Nc3ccc(C(C)C)cc3)C2)c1C (stereo not shown) | 0.282
45 | CCn1c(SCC(=O)NC2CCS(=O)(=O)C2)nnc1-c1ccccc1 (stereo not shown) | 6.72
46 | COC1=NS(=O)(=O)c2ccccc21 | 6.4

Row | SMILES | hERG current change (%, negative = inhibition) at 1uM [%]
47 | CCCCCCc1ccc(O)cc1O | 18.3
48 | CCN(CC(O)CON=C1c2ccccc2-c2ccccc21)S(=O)(=O)c1ccc(C)cc1 (stereo not shown) | 7.09
49 | O=C(C(c1ccccc1)c1ccccc1)N1CCC(c2nc(-c3ccccc3Cl)no2)CC1 | 12.1
50 | NC(=O)COC(=O)c1ccc(Cl)c(S(=O)(=O)N2CCCCCC2)c1 | 2.11
51 | CCCCCC1CC1C(=O)N/N=C/c1ccc(N(C)C)cc1 (stereo not shown) | 3.81
52 | O=C(/C=C/Nc1ccccc1Oc1ccccc1)c1ccco1 | 17.2
53 | Brc1ccc(C2C3=C(Nc4ncnn42)c2ccccc2OC3c2ccncc2)cc1 (stereo not shown) | 1.53
54 | Cc1ccc(C(=O)Nc2c3c(nn2C(C)(C)C)CS(=O)(=O)C3)cc1[N+](=O)[O-] | 21.2
55 | C=CCOC(=O)C1=C(C)NC(=O)NC1c1ccc2c(c1)OCO2 (stereo not shown) | 0.316
56 | CCC(NC(=O)CCl)c1ccc(C)cc1 (stereo not shown) | 13.3
57 | C=CCNC(=O)C1CC2c3ccccc3C1c1ccccc12 (stereo not shown) | 15.8
58 | CCC(=O)Nc1ccc(C(=O)c2ccccc2)cc1 | -3.28
59 | CC(C(=O)O)n1nc(-c2ccccc2)c2ccccc21 (stereo not shown) | 11.5
60 | Cc1ccc(S(=O)(=O)NCC(=O)N2CCOCCOCCOCC2)cc1 | 4.03
61 | CCc1ccccc1NC(=O)C1CCCC1 | 12.8
62 | CCOc1ccc(NC(=O)CCNS(=O)(=O)c2ccc3c(c2)c(=O)n(C)c(=O)n3C)cc1 | 19
63 | CS(=O)(=O)O.c1ccc(-c2ccc3c(c2)c2c4n3CCN=C4CCC2)cc1 | 2.12
64 | CC(=O)N1N=C2C3CCN(CC3)C2C1c1ccccc1 (stereo not shown) | 15.5
65 | CC1C(c2ccccc2)=[N+]([O-])C2(CCCCC2)N1O (stereo not shown) | 6.07
66 | COC(=O)c1cc(C(=O)OCC(=O)NNC(=O)c2cccs2)cc([N+](=O)[O-])c1 | 0.0453
67 | CCOc1cc(/C=C2/SC(=Nc3ccccc3)N(Cc3cccnc3)C2=O)ccc1OCC#N | 9.81
68 | O=C(Cn1cnc2ccccc2c1=O)NC1CCS(=O)(=O)C1 (stereo not shown) | 8.49
69 | COc1ccccc1CNC(=O)CN(C)Cc1ccc(SC)cc1 | -7.53

Row | SMILES | hERG current change (%, negative = inhibition) at 1uM [%]
70 | Cc1ccc2c(c1)C=CC(C)N2C(=O)c1ccccc1 (stereo not shown) | 1.73
71 | COc1ccc(CCc2nnc(CCC(=O)NCc3ccc4ncccc4c3)o2)cc1 | 11.7
72 | NC(=O)c1ccccc1OCC(=O)N1CCCc2ccccc21 | 11.8
73 | COc1ccc(NC(=O)Nc2cccc3ccccc23)cc1OC | 9.56
74 | O=C(COc1ccccc1-c1ccccc1)N/N=C/c1cccnc1 | 2.3
75 | CC(C)Cn1c(N)c(C(=O)COC(=O)c2cccc(Cl)c2)c(=O)n(C)c1=O | 4.97
76 | NC(=O)C1=C[C@@H](c2ccc3c(c2)OCO3)C[C@@H](OCCCCO)O1 | 8.49
77 | COCC(C)NC(=O)Cc1ccc(F)cc1 (stereo not shown) | 14.5
78 | CCCN1Cc2cccc(C(=O)NC(C)c3cccs3)c2C1=O (stereo not shown) | -0.477
79 | COC(=O)C1=CN(c2ccc(Cl)cc2)C=C(C(=O)OC)C1c1ccc([N+](=O)[O-])cc1 | 11.8
80 | O=C(/C=C/c1cccc([N+](=O)[O-])c1)N1CCN(c2ccccn2)CC1 | 1.34
81 | C(=N\n1cnnc1)/c1cccn1-c1ccccc1 | 6.03
82 | CC(=O)N1c2ccc(S(=O)(=O)N3CCCC(C(=O)NCc4ccccc4)C3)cc2CC1C (stereo not shown) | 9.9
83 | Cc1ccccc1OC(C)c1nc(-c2ccccc2)no1 (stereo not shown) | 2.6
84 | Cc1nn(-c2ccccc2)c(C)c1/C=N/NC(=O)c1cccs1 | 4
85 | CCN1CCN(S(=O)(=O)c2ccc(Cl)c(C(=O)N(C)Cc3cccc(Cl)c3Cl)c2)CC1 | -11.6
86 | CCOc1ccccc1NC(=O)CC1SC(=N)N(c2ccccc2)C1=O (stereo not shown) | 7.17
87 | Nc1nc(NCC2CCCO2)nc(Nc2ccccc2)c1[N+](=O)[O-] (stereo not shown) | -2.16
88 | CC(=O)Oc1ccc(-c2cccc(C(=O)O)c2)cc1 | 11.3
89 | CC(C)(C)NC(=O)COc1ccc(CNCc2cccnc2)cc1.Cl | 1.68
90 | COC(=O)c1ccc(NC(=O)COc2cccc3c2OC(C)(C)C3)cc1 | 3.11
91 | CCC(=O)n1nc(-c2ccccc2)nc1SCC(=O)Nc1ccc(C)cc1 | 8.41
